Test results taken from US8030025B2, “Antibodies directed to angiopoietin-1 and angiopoietin-2 and uses thereof” (Amgen Inc., dated 2011).

Key:
Human Ang2 = Human Ang2 (human, UniProt O15123); assay: angiopoietin:Tie2 neutralization ELISA; coated angiopoietin vs hTie2-Fc
Cyno Ang2 = Cyno Ang2 (cynomolgus monkey, UniProt A0A2K5VNX6); assay: as above
Human Ang1 [1] = molecular target: T1, Human Ang1 (human, UniProt Q15389); assay: as above
Rabbit Ang1 = Rabbit Ang1 (rabbit, UniProt G1SK98); assay: as above
Murine Ang2 = Murine Ang2 (mouse, UniProt O35608); assay: as above
Cyno Ang1 = Cyno Ang1 (cynomolgus monkey, UniProt A0A2K5VW43); assay: as above
Murine Ang1 = Murine Ang1 (mouse, UniProt O08538); assay: as above
[2] = molecular target: biotinylated human angiopoietin 1 (human, UniProt Q15389, biotin); assay: angiopoietin:Tie2 neutralization HTRF; biotin-hAng1 vs Tie2-APC
Human Ang1 [3] = molecular target: T1, Human Ang1; assay: angiopoietin:Tie2 neutralization assays (Tables 10 and 11); reference Ang2
[4] = molecular target: biotinylated human angiopoietin 2 (human, UniProt O15123, biotin); assay: angiopoietin:Tie2 neutralization HTRF; biotin-hAng2 vs Tie2-APC

- IC50 (Human Ang2): 1880 nM
- IC50 (Cyno Ang2): 1890 nM
- IC50 (Human Ang1 [1]): 0.045 nM
- IC50 (Rabbit Ang1): 0.061 nM
- IC50 (Murine Ang2): > 10000 nM
- IC50 (Cyno Ang1): 0.039 nM
- IC50 (Murine Ang1): 0.033 nM
- IC50 [2]: 0.022 nM
- fold selectivity over Ang2 (Human Ang1 [3]): > 40000 fold
- IC50 [4]: 3080 nM
B1: mL4-3 (Fc fusion)
chain: MREWTEEMQVIFDAMMFGPRNDRGGSGSATGSGSTASSGSGSATHREWTEEMQVIFDAMMFGPRNDRGGGGG[sequence of human IgG1 Fc omitted]
